Experimental data taken from patent publication US10857112B2, “Small molecule inhibitors of RNA binding motif (RBM) proteins for the treatment of acute cellular injury” (University of Pittsburgh—Of the Commonwealth System of …, priority 2012, dated 2020).

Test system: caspase 3/7
Assay: H2O2-induced caspase 3/7 activity (Caspase3/7-GLO)
Type: cell-based, rat
Details: 40 μM H2O2

SMILES	H2O2-induced caspase 3/7 activity (5, 25 and 50 μM, compared to control injury)	H2O2-induced caspase 3/7 activity (5 μM)	H2O2-induced caspase 3/7 activity (25 μM and 50 μM)	H2O2-induced caspase 3/7 activity (75 μM)
Cc1cc(O)c2c(c1)C(=O)c1cc(O)cc(O)c1C2=O [emodin, 6-methyl-1,3,8-trihydroxyanthraquinone]	significantly reduced caspase activity at all 3 concentrations			
O=C1c2ccccc2C(=O)c2cc(S(=O)(=O)O)ccc21 [AQ2S, anthraquinone-2-sulfonic acid]		not at the lowest 5 μM concentration	inhibited caspase 3/7 activity	significantly inhibited caspase 3/7 activity below injured and non-injured levels
